Measured values taken from PMC4336329 (PLoS ONE, 2015).
Hit rate of the full screen: of about 310,000 compounds, about 2,200 (0.71%) showed an effect of 50% or more. Effects have a minus sign here. Some of the results follow.

target: human ether-à-go-go-related gene (hERG) potassium channel (human, UniProt Q12809); experiment: primary screen, population patch clamp on CHO cells stably expressing hERG
Sequence (Q12809 whole entry, looked up): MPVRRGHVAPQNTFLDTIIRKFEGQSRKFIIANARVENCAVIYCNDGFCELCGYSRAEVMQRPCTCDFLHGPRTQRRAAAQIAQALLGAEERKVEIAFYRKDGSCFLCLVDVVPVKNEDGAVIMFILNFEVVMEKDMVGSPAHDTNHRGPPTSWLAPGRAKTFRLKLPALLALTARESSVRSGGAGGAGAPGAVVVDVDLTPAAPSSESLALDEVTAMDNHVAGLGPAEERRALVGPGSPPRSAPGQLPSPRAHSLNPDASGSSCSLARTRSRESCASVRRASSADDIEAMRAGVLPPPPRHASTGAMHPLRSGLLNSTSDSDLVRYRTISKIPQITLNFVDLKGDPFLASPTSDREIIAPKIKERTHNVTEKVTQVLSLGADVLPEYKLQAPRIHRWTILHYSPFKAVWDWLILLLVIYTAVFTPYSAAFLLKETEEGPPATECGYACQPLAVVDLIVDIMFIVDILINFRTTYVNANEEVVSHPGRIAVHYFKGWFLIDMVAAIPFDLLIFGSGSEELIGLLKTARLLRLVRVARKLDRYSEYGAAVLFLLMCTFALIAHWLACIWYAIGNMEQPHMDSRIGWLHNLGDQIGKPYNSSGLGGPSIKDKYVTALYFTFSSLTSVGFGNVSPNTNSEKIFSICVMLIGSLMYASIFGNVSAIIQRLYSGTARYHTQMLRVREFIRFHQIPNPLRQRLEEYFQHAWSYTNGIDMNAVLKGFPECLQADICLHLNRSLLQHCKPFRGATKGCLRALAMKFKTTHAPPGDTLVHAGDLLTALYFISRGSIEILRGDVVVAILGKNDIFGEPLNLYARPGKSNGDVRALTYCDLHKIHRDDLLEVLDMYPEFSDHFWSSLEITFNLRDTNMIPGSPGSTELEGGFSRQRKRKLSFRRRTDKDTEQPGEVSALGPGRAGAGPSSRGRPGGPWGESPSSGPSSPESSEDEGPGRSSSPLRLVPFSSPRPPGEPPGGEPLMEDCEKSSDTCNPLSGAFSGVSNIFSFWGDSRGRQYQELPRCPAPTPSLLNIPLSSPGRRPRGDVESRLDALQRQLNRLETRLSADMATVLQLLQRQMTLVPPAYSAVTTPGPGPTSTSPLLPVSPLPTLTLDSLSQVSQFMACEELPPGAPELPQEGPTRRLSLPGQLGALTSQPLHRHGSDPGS

Compared with COc1ccccc1-c1cnn2c(NCc3ccccc3)cc(C)nc12, Cc1occc1-c1nnc(SCC(=O)NCCc2ccccc2)n1C(C)c1ccccc1 (stereo not drawn) is lower in “hERG current change (%, negative = inhibition) at 1uM” value: 15.4% for the first, -5.95% for the second.

First: Fc1ccc(CSc2ncnc3ccccc23)cc1
Second: O=C(COc1ccc(Cl)cc1)NCc1ccc(F)cc1
The “hERG current change (%, negative = inhibition) at 1uM” value of the first is lower: -0.628% for the first, 8.04% for the second.

First: Cc1ccc(-c2nnc(SC(C)C#N)n2N)cc1 (stereo not drawn)
Second: CCOc1ccc(-c2cn[nH]c2N)cc1
The “hERG current change (%, negative = inhibition) at 1uM” value of the first is higher: 14.7% for the first, -7.24% for the second.

Compared with C=CCN1C(=O)C(CC(=O)NCC)SC1=Nc1ccc(S(N)(=O)=O)cc1 (stereo not drawn), CCOc1ncccc1C(=O)N1CCCSC1=Nc1ccc(C(C)=O)cc1 is lower in “hERG current change (%, negative = inhibition) at 1uM” value: 14.3% for the first, -8.91% for the second.

Compared with COc1ccc(C(=O)Nc2ccc(Cl)cc2C(=O)NCCO)cc1, COc1ccc(-c2csc(NC(=O)c3ccc(N4C(=O)CCC4=O)cc3)n2)cc1 is higher in “hERG current change (%, negative = inhibition) at 1uM” value: -36.2% for the first, 25.5% for the second.

First: COc1ccccc1N(CC(=O)NCCc1ccccc1)C(=O)CCC(=O)Nc1nccs1
Second: COC(=O)c1cc(C)sc1NC(=O)CCc1ccccc1
The “hERG current change (%, negative = inhibition) at 1uM” value of the first is higher: 6.13% for the first, 5.19% for the second.

Going from COc1c(O)cccc1-c1nnn(CCC(=O)OCC(=O)c2ccccc2)n1 to O=C(Cc1c2ccccc2nc2ccccc12)c1ccccc1, the “hERG current change (%, negative = inhibition) at 1uM” value falls from 27.7% to -1.24%.

First: COc1ccccc1CNS(=O)(=O)c1c(C(=O)N2CCCC2)c(C)n(C)c1C
Second: COC(=O)C1CCN(C(=O)c2c(-c3ccccc3Cl)noc2C)CC1
The “hERG current change (%, negative = inhibition) at 1uM” value of the first is lower: 13.4% for the first, 14% for the second.

Compared with Cn1ccs/c1=N\S(=O)(=O)c1ccc(F)cc1, Cc1ccc(N(Cc2ccccc2F)S(C)(=O)=O)cc1C is lower in “hERG current change (%, negative = inhibition) at 1uM” value: 10.8% for the first, 8.79% for the second.

Going from Cc1ccc(OCCCCN2CCC(C)CC2)cc1.O=C(O)C(=O)O to Cc1ccc(S(=O)(=O)N2CCN(CCOc3cccc(C)c3)CC2)cc1, the “hERG current change (%, negative = inhibition) at 1uM” value rises from -0.565% to 3.4%.

First: CCOC(=O)N1CCN(C(=O)Cc2cccs2)CC1
Second: Cc1cc(C(=O)N2CCN(c3cccc(Cl)c3)CC2)c(C)o1
The “hERG current change (%, negative = inhibition) at 1uM” value of the first is higher: 18.5% for the first, 11% for the second.

Going from CCCN1Cc2cccc(C(=O)Nc3ccc4c(c3)OCCO4)c2C1=O to CCOC(=O)C1=C(Nc2ccc(Cl)cc2)OCC1=O, the “hERG current change (%, negative = inhibition) at 1uM” value rises from 6.86% to 14.8%.

First: COc1cc(/C=C2\SC(=Nc3ccc(Cl)c(C(=O)O)c3)NC2=O)c(Br)c(Br)c1O
Second: COc1cc(NC(=O)c2ccco2)c(C(=O)OCC(=O)c2c[nH]c3ccccc23)cc1OC
The “hERG current change (%, negative = inhibition) at 1uM” value of the first is lower: 9.09% for the first, 12.3% for the second.

Going from CC(C)c1ccc(CNc2c([N+](=O)[O-])c(=O)oc3ccccc23)cc1 to Cc1ccccc1NC(=O)Cn1cnc2c(oc3ccccc32)c1=O, the “hERG current change (%, negative = inhibition) at 1uM” value rises from 10.7% to 11.6%.

First: CS(C)=O.Cc1[nH]c2ccccc2c1/C=N/Nc1ccc([N+](=O)[O-])cc1S(=O)(=O)Nc1ccc(Cl)cc1
Second: O=C(O)c1ccc(N/N=C/c2c[nH]c3ccccc23)cc1
The “hERG current change (%, negative = inhibition) at 1uM” value of the first is higher: 11.8% for the first, 4.61% for the second.

Going from Cc1nn(Cc2ccc(Cl)cc2Cl)c(C)c1NC(=O)C1C2CCC(O2)C1C(=O)O (stereo not drawn) to CCc1ccc(NC(=O)C2CCN(S(=O)(=O)c3c(C)noc3/C=C/N(C)C)CC2)cc1, the “hERG current change (%, negative = inhibition) at 1uM” value falls from 8.02% to 7%.

Compared with NNC(=O)c1ccc(COc2cccc3cccnc23)cc1, Nc1ccc(OCc2ccccc2)cc1 is higher in “hERG current change (%, negative = inhibition) at 1uM” value: 5.5% for the first, 10.7% for the second.

Going from O=C(COC(=O)c1ccccc1)Nc1ccccc1Sc1ccccc1 to O=C(CCN1CCN(c2ccccc2)CC1)NNC(=O)c1cccc2ccccc12, the “hERG current change (%, negative = inhibition) at 1uM” value rises from -1.22% to 8%.

First: CCOC(=O)C(=O)/C(=C\N(C)C)c1onc(-c2ccccc2)c1C(=O)OC
Second: CCC(CC)NC(=O)c1oc2ccccc2c1COc1ccccc1
The “hERG current change (%, negative = inhibition) at 1uM” value of the first is lower: 10.4% for the first, 14.7% for the second.

Compared with Cc1ccc(S(=O)(=O)N2CCN(C(=O)c3ccnn3C)CC2)cc1C, Cc1ccc(S(=O)(=O)N2CCC(C(=O)C3C(=O)CC(C)(C)CC3=O)CC2)cc1 is higher in “hERG current change (%, negative = inhibition) at 1uM” value: 15.7% for the first, 18.8% for the second.

Going from CCS(=O)(=O)N1CCC(N2CCN(c3ccccc3)CC2)CC1 to O=C(CN1CCN(c2ccc(F)cc2)CC1)Nc1ccc(S(=O)(=O)N2CCOCC2)cc1, the “hERG current change (%, negative = inhibition) at 1uM” value rises from 7.61% to 13.8%.

First: Cc1cc(-c2nn(-c3ccccc3F)cc2CN(C)CC(O)CO)c(C)s1 (stereo not drawn)
Second: CN(C(=O)CCc1nc2ccccc2s1)c1ccccc1
The “hERG current change (%, negative = inhibition) at 1uM” value of the first is lower: -0.301% for the first, 7.76% for the second.

Compared with CCO[C@H]1OC(C(N)=O)=C[C@@H](c2ccccc2)[C@@H]1CCCO, Cn1c(SCC(=O)NCc2ccccc2)nnc1C1CC1 is higher in “hERG current change (%, negative = inhibition) at 1uM” value: 3.75% for the first, 13.7% for the second.

Compared with Cc1c(Cl)cccc1NC(=S)NC1CCCC1, O=C(O/N=C/C1=C(Cl)c2ccccc2CC1)c1ccc(F)cc1 is lower in “hERG current change (%, negative = inhibition) at 1uM” value: 12.9% for the first, 6.07% for the second.

Going from COc1ccc(NC(C)=O)cc1NC(=O)CSc1nnc(-c2ccccn2)n1C to COc1ccc(Cc2c3cc(OC)c(OC)cc3cc[n+]2C)cc1OC.[I-], the “hERG current change (%, negative = inhibition) at 1uM” value rises from -3.27% to 1.79%.

Compared with CC(NCCO)C(=O)C12CC3CC(CC(C3)C1)C2.Cl (stereo not drawn), CN1CCC(OC(=O)C23CCC(C)(C(=O)O2)C3(C)C)CC1 (stereo not drawn) is lower in “hERG current change (%, negative = inhibition) at 1uM” value: 13.5% for the first, 0.628% for the second.

First: Cn1c(CNc2nc3ccccc3n2CCN2CCCCC2)nc2ccccc21
Second: CCn1c(C)nc2cc(C(=O)NNS(=O)(=O)c3c(F)cc(F)c(Cl)c3F)ccc21
The “hERG current change (%, negative = inhibition) at 1uM” value of the first is lower: -14.8% for the first, 8.35% for the second.

First: O=C(O)COc1c(F)c(F)c(C(F)(F)F)c(F)c1F
Second: Cc1c(CC(=O)NCCCC(=O)O)c(=O)oc2c(C)c3oc4c(c3cc12)CCCC4
The “hERG current change (%, negative = inhibition) at 1uM” value of the first is higher: 10.4% for the first, 8.92% for the second.

COc1ccc(N2CSC3=C(C#N)C(c4cc(OC)c(OC)cc4OC)CC(=O)N3C2)c(OC)c1 (stereo not drawn) was tested, and the “hERG current change (%, negative = inhibition) at 1uM” value was -2.09%.
